Source: PubChem BioAssay AID686979 (National Center for Advancing Translational Sciences (NCATS), 2013)
Several values for one entry are separate records, joined by “and”; a condition that tells them apart may be missing. Identical values can stand only once. The campaign covered roughly 420,000 compounds. About 50,000 (12%) were called active. The inconclusive results got no clear call from the source; some entries with a clear call stand among them for comparison. Calls follow the shape of the dose curve; as a rule, active = well fitted inhibition curve with a large enough effect; inconclusive = small, poorly fitted or top-dose-only effect; inactive = flat fitted curve, though single readings scatter. Potencies of inconclusive entries are left out as doubtful fits.

Assay: qHTS for Inhibitors of human tyrosyl-DNA phosphodiesterase 1 (TDP1): qHTS in cells in presence of CPT; also: nearly all actives have a fitted effect of over 55% in size
Details: chicken DT40 Tdp1-/-;hTDP1 cells + 20 nM CPT, ATP luminescence, 48 h; activity change, negative = growth inhibition: at 46.2 µM (top of the series) unless noted
Excerpt: Human tyrosyl-DNA phosphodiesterase 1 (TDP1) is a novel repair gene, and we propose to use it as a new target for anticancer drug development. TDP1 is not an essential protein, but under treatment with topoisomerase I poison (camptothecin: CPT), TDP1 works as a critical factor for cell survival. To directly identify novel TDP1 inhibitors active in a cellular environment, we have knocked-out the Tdp1 gene in chicken DT40 cells (Tdp1-/-) and generated a complemented counterpart cells that contains a stable transfection of the human TDP1 gene (Tdp1-/-;hTDP1 cells). For the primary screen, Tdp1-/-;hTDP1 cells will be exposed to small molecules in the presence or absence of CPT, and their growth kinetics will be evaluated after 48 hours by measuring ATP activity. […] The hit compounds will then be evaluated in the presence or absence of CPT using Tdp1-/- cells. […] In tertiary assays, biochemical gel-based assays will be used to assess whether the hit compounds specifically target TDP1. To this end, we have screened this cell line against the MLSMR in two primary screens. In one screen we add CPT and in the other we screen in the absence of CPT; this AID represents the screen where CPT was present. NIH Chemical Genomics Center [NCGC] NIH Molecular Libraries Probe Centers Network [MLPCN] MLPCN Grant: MH095538 Assay Submitter (PI): Yves Pommier, NCI
DT40-hTDP1 cells with 20 nM Camptothecin (add 20 microL of 1 mM CPT stock in 1 L of cell culture medium) were dispensed at 400 cells/5microL/well in tissue culture treated 1536-well white wall/solid bottom assay plates (Greiner Bio-One North America, NC, U.S.A.) using a Multidrop Combi 8 channel dispenser (Thermo Fisher, Waltham, MA, USA). 23 nL compounds and controls were transferred using the pin tool (Kalypsys, San Diego, CA, USA) to the assay plates. The assay plates were then incubated at 37 masculineC for a minimum 48 hr. Three microL of Cell Titer Glo solution was added to the plates and incubated at RT in dark for 30 min. Luminescence was read using ViewLux (Perkin Elmer) with 1 sec exposure slow speed, high gain and 2x binning.
% is scaled to controls: 0 for no effect and ±100 for the full control effect; potency is read from the fitted curve at half-maximal effect; tags tell the direction and shape of the fitted curve.

SMILES	Potency	activity change, negative = growth inhibition
CC(C)[C@@H]1COC(c2cccc(C3=N[C@H](C(C)C)CO3)c2)=N1	active: 20.6 µM	
COc1cc(/C=C/C(=O)c2cccc([N+](=O)[O-])c2)cc(OC)c1OC	active: 5.8 µM	
CN(c1ccccc1)S(=O)(=O)c1cccc(NC(=O)c2cc(=O)c3ccccc3o2)c1	active: 16.4 µM	
O=c1sc2ccccc2n1Cc1ccccc1	inactive	
CN(C)CC(C(=O)c1ccccc1)c1ccccc1 (stereo not given)	active: 1.16 µM	
O=C(NCc1ccc2c(c1)OCO2)c1ccc(S(=O)(=O)N2CCOCC2)cc1	inconclusive [inhibitor, partial curve]	
O=C(CSc1ccccn1)Nc1cccc([N+](=O)[O-])c1	inactive	
Cc1c(NS(=O)(=O)c2cc(C(=O)NCC3CCCO3)cc(Cl)c2Cl)c(=O)n(-c2ccccc2)n1C (stereo not given)	inactive	
CC(C)(C)OC(=O)N1CCC(c2c(C(=O)N3CCN(C(=O)c4ccco4)CC3)cnn2-c2cccc(F)c2)CC1	inconclusive [inhibitor, single point]	
CCCNC(=O)COc1coc(CN2CCN(C(=O)c3ccco3)CC2)cc1=O	inactive	
CCOc1ccc(-n2c(SCC(=O)N3CCOCC3)nc3c([nH]c4ccccc43)c2=O)cc1	inactive	
Cc1cccc(NS(=O)(=O)c2ccc(Br)s2)n1	inactive	
O=S(=O)(Nc1ccccc1OC(F)F)c1ccc(S(=O)(=O)N2CCCC2)cc1	inconclusive [inhibitor, single point]	
O=P(O)(O)O	inactive	
CCCC(=O)N1CCN(c2nc3c(OC)ccc(C)c3s2)CC1	inactive	
C[C@@H]1CN([C@@H](C)CO)C(=O)c2cc(NC(=O)c3ccccc3)ccc2O[C@@H](C)CCCCO[C@@H]1CN(C)Cc1ccc(C(F)(F)F)cc1	active: 9.2 µM	
COc1cc(C2c3c([nH]c(=O)[nH]c3=O)Nc3ccc4ccccc4c32)ccc1O (stereo not given)	inactive	
Cc1nc(SCC(=O)N2CC(=O)Nc3ccccc32)c2c(C)c(C)sc2n1	inconclusive [inhibitor, single point]	
CCn1c(CSc2nc3ccccc3s2)nnc1SCC(=O)c1ccc(Cl)cc1	active: 16.4 µM	
CCCCSc1nc2c([nH]1)c(=O)n(C)c(=S)n2C	inactive	
O=C(Nc1cccc(C(=O)N2CCN(Cc3ccccc3)CC2)c1)c1ccccc1	inconclusive [inhibitor, single point]	
Nn1c(SCC(=O)Nc2ccc(OC(F)F)cc2)nnc(Cc2ccccc2)c1=O	inactive	
Cc1ccc(C)c(Nc2nnc(-n3nc(C)cc3C)c3ccccc23)c1	inconclusive [inhibitor, single point]	
N#Cc1nc(-c2cccs2)oc1NCc1ccc(Cl)cc1	inconclusive [inhibitor, single point]	
COc1cc(CNCCO)cc(Cl)c1OCc1ccc(Cl)cc1Cl	inconclusive [inhibitor, single point]	

SMILES	Potency	activity change, negative = growth inhibition
CC1CC(C)(C)NC(=S)N1CCCC(=O)Nc1ccc(Br)cc1 (stereo not given)	inconclusive [inhibitor, single point]	
COc1ccc(NC(=S)NC(=O)CC(C)C)c(OC)c1	inactive	
CC1(C)Cc2noc(N)c2C(C)(C)N1OC(=O)c1ccco1	inactive	
Cc1ccc(Cl)cc1-n1ncc2c(NC3CCCCCC3)ncnc21	active: 20.6 µM	
Cc1cccc(C(=O)OCC(=O)N2c3ccccc3CC2C)c1C (stereo not given)	inactive	
COC(=O)c1oc2c(c1C)C1(CCC2)SCCS1	inconclusive [inhibitor, single point]	
CC1=NOC(=O)/C1=C/c1ccc(O)c(Cl)c1	inconclusive [inhibitor, single point]	
CC(OC(=O)c1ccccc1CCc1ccccc1)C(N)=O (stereo not given)	inconclusive [inhibitor, single point]	
O=C(COC(=O)c1oc2ccccc2c1COc1ccccc1)NCCN1C(=O)CSC1=O		inconclusive: -31.4% [inhibitor]
COc1ccc(C)cc1N(CC(=O)Nc1cccnc1)S(=O)(=O)c1ccc(C)cc1	inconclusive [inhibitor, single point]	
COc1ccc(S(=O)(=O)N[C@@H]2C=C[C@@H](CC(=O)N3CCc4ccccc4C3)O[C@@H]2CO)cc1	inconclusive [inhibitor, single point]	
CCc1ccc(O)c(CNCCNCc2cc(CC)ccc2O)c1	active: 23.1 µM	
COc1cccc(C(=O)O/N=C(\N)c2ccc(C)cc2)c1	inactive	
O=C(NCc1ccc(Cl)cc1)c1cnc(N2CCCCC2)c2ccccc12	inconclusive [inhibitor, single point]	
Cc1cccc(N2CCN(CCNC(=O)C3COc4ccccc4C3)CC2)c1C (stereo not given)	inconclusive [inhibitor, single point]	
O=C(c1n[nH]c(=O)c2ccccc12)N1CCN(c2ccc(F)cc2)CC1	inconclusive [inhibitor, single point]	
Cc1ccc(CNC(=O)c2cc3c(=O)n4ccccc4nc3n(Cc3ccco3)c2=N)cc1	active: 13 µM	
CCOC(=O)[C@]12CCCC=C1N(Cc1ccccc1)C(=O)[C@H](CC(=O)N1CCCCCC1)C2	inconclusive [inhibitor, single point]	
COc1ccc(-c2nnc(SCc3nc4ccccc4s3)n2C(C)C)cc1	inconclusive [inhibitor, single point]	
CC(C)(C)c1ccccc1NC(=O)Nc1nc(C(N)Cc2ccc(F)cc2)cs1 (stereo not given)	inconclusive [inhibitor, single point]	
CC(C)c1nnc(NC(=O)CCS(=O)(=O)c2ccccc2)s1	active: 16.4 µM	
O=C(NC1CC(=O)N(c2cccc(F)c2)C1)c1ccc(Br)o1 (stereo not given)	inconclusive [inhibitor, single point]	
CN1OC[C@@H]2CN(C(=O)c3cccc4ccccc34)[C@H](c3ccccc3Br)C[C@@H]21	inactive	
CC1CCCC(C)N1C(=O)COC(=O)CNS(=O)(=O)c1ccc2ccccc2c1 (stereo not given)	inactive	
O=C(CSc1ncnc2c1nnn2Cc1ccccc1F)NCC1CCCO1 (stereo not given)	inconclusive [inhibitor, single point]	

SMILES	Potency	activity change, negative = growth inhibition
CN(C)c1nc(Nc2ccc(Cl)c(Cl)c2)nc(N(C)C)n1	inconclusive [inhibitor, partial curve, poor fit]	
CCOC(=O)c1cnn2c(C(F)(F)F)cc(-c3ccccc3)nc12	inconclusive [inhibitor, single point]	
Cc1ccc(Cc2nc3ccccc3nc2SCC(=O)Nc2ccc3c(c2)OCO3)cc1	inconclusive [inhibitor, partial curve]	
COc1ccc(N=Cc2c(C)[nH][nH]c2=O)cc1	inactive	
Cc1ccccc1-c1nsc(SCC(=O)Nc2ccc3c(c2)OCO3)n1	inconclusive [inhibitor, single point]	
CCC(=O)Nc1nnc(SCC(=O)Nc2ccc3c(c2)OCCO3)s1	active: 14.6 µM	
Cn1nnnc1Sc1ncnc2scc(-c3ccc(F)cc3)c12	active: 6.31 µM and active: 16.4 µM	
CC(=O)c1ccc(NC(=O)CCSc2nc(-c3ccco3)cc(C(F)(F)F)n2)cc1		inconclusive: -30.3% [inhibitor]
O=C(NC1CCCCC1)c1sc(N2CCOCC2)nc1-c1ccccc1	inconclusive [inhibitor, partial curve]	
COc1ccc(NC(=O)CC2SC3=NCCN3C2=O)cc1 (stereo not given)	inactive	
C(=N\n1cnnc1)/c1cn(Cc2ccccc2)c2ccccc12	inactive	
CNc1ccc2ncc(-c3cccc(C(=O)N(C)C)c3)n2n1	inconclusive [inhibitor, partial curve, poor fit]	
CC(=O)N1CCC(C(=O)Nc2ccc(S(=O)(=O)N3CCCCC3)cc2)CC1	inconclusive [inhibitor, single point]	
Cc1cc2cc(CN(Cc3nnnn3C3CCCCC3)CC3CCCO3)c(=O)[nH]c2cc1C (stereo not given)	inconclusive [inhibitor, single point]	
CCN(CC)C(=O)CSc1nnc(-c2ccco2)o1	inactive	
COc1ccc(C)cc1-n1cnc2sc(C)c(C)c2c1=O	inconclusive [inhibitor, single point]	
O=C(CSC1=NC2(CCCCC2)N=C1c1ccccc1)Nc1ccc2c(c1)OCCO2	inconclusive [inhibitor, single point]	
CCOc1ncccc1C(=O)OCC(=O)c1cc(OC)ccc1OC	inconclusive [inhibitor, single point]	
Nc1ccc(C(=O)N2CCN(S(=O)(=O)c3ccc4c(c3)OCCCO4)CC2)cc1[N+](=O)[O-]	inconclusive [inhibitor, single point]	
Nc1nc(-c2ccccc2)c(N=Nc2cccc3ccccc23)s1	active: 23.1 µM	
O=C(NCC1CCCO1)c1ccc(N2CCCCC2)c([N+](=O)[O-])c1 (stereo not given)	inactive	
Cc1c(S(=O)(=O)c2cccc(Cl)c2)nnn1-c1cccc(C(F)(F)F)c1	inconclusive [inhibitor, single point]	
O=C(c1ccco1)N1CCN(C(=O)c2ccc(-c3ccc(Cl)cc3)o2)CC1	active: 18.4 µM	
O=C(COC(=O)c1ccco1)c1ccc(S(=O)(=O)N2CCCCC2)cc1	inactive	
Cc1ccc(C(C)C)cc1OCC(=O)N/N=C/c1ccc2c(c1)OCCO2	inconclusive [inhibitor, single point]	
